Test results taken from publication PMC4336329 (PLoS ONE, 2015).
The campaign covered roughly 310,000 compounds. About 14,000 (4.5%) showed an effect of 50% or more. The effect is printed as a negative number. Some of the results follow.

biological target: human ether-à-go-go-related gene (hERG) potassium channel (human, UniProt Q12809); test: primary screen, population patch clamp on CHO cells stably expressing hERG
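Also: peak tail current of the secondary pulse compared with the same well before compound.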

Sequence of human ether-à-go-go-related gene (hERG) potassium channel (Q12809 whole entry, looked up): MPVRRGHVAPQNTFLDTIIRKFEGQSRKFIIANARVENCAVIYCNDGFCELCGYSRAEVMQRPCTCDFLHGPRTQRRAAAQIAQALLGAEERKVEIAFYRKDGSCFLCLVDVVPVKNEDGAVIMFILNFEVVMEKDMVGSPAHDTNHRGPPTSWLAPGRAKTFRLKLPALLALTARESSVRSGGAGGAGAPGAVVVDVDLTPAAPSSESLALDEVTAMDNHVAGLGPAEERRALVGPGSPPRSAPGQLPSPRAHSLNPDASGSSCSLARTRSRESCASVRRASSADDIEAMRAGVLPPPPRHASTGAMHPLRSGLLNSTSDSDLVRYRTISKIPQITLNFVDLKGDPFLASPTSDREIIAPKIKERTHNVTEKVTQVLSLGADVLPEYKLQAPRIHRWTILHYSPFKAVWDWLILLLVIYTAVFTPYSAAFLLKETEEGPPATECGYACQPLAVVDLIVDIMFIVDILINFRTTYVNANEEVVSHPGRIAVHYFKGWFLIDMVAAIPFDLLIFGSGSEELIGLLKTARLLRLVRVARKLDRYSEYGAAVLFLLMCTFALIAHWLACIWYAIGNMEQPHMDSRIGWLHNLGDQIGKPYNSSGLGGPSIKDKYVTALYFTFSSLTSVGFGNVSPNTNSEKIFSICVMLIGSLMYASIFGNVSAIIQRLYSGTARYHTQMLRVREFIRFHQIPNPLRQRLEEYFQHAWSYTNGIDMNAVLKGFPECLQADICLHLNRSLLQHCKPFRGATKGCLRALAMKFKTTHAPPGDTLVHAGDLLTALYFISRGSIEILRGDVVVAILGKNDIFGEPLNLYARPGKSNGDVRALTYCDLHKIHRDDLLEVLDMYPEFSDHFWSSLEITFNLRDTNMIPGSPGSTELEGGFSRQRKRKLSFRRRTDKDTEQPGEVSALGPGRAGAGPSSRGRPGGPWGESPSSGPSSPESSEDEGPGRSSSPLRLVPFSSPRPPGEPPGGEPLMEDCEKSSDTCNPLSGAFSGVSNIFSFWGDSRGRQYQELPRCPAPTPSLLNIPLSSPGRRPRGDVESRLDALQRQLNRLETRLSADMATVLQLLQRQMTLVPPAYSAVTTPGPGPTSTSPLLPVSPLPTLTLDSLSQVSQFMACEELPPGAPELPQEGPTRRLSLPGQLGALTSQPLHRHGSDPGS

| SMILES | hERG current change (%, negative = inhibition) at 10uM [%] |
| --- | --- |
| C=CCc1ccc(OCc2ccc(C(=O)OC)o2)c(OC)c1 | -12.1 |
| O=C(NC(=S)Nc1ccc2oc(=O)ccc2c1)c1cccc(Cl)c1 | 4.11 |
| Cc1ccc(NC(=O)Nc2cccc(Cl)c2)c(C(=O)O)c1 | 19.6 |
| CC1CC(C)CN(C(=S)NC2CCCCC2)C1 (centres unmarked) | -6.05 |
| COc1ccc(N=NC2C(=O)N(c3ccccc3)N=C2C)cc1 (centres unmarked) | 29 |
| O=C(c1ccc(S(=O)(=O)c2ccccc2)cc1)N1CCc2ccccc2C1 | 14.5 |
| CCOC(=O)Oc1ccc2c(c1)C(C)=CC(C)(C)N2C(=O)OCC | 13.1 |
| CC(=O)c1ccc(N2CCN(C(=O)C3CCN(S(=O)(=O)c4ccc5c(c4)CC(C)N5C(C)=O)CC3)CC2)cc1 (centres unmarked) | -1.37 |
| CCOC(=O)C1=NOC(CNC(=O)c2c(-c3ccccc3Cl)noc2C)C1 (centres unmarked) | 15.8 |
| Cc1ccc(SCc2cc(=O)n3ccsc3n2)c(C)c1 | -30.5 |
| NC(=O)Nc1ccc(F)cc1 | -5.1 |
| O=C(C(Cc1ccccc1)n1cccc1)N1CCCCC1 (centres unmarked) | 2.03 |
| O=C1C(Oc2ccccc2)C(c2cccs2)N1Cc1ccc2c(c1)OCO2 (centres unmarked) | -2.74 |
| O=S(=O)(c1ccc(Cl)cc1)c1cnc2ccccc2n1 | 11.9 |
| COC(=O)C(NS(=O)(=O)c1ccc(N2CCCC2=O)cc1)c1ccccc1 (centres unmarked) | 1.17 |
| CCN(C(=O)CN1C(=O)c2ccc([N+](=O)[O-])cc2C1=O)C1CCCCC1 | -9.73 |
| CNC(=O)c1cc(C(=O)c2ccccc2Br)c[nH]1 | 9.8 |
| Cc1c(OC(C)C(=O)NCCCN2CCOCC2)ccc2c3c(c(=O)oc12)CCCC3 (centres unmarked) | -1.57 |
| COc1ccc(N2CCN(C(=O)CCCSc3nc4ccccc4[nH]3)CC2)cc1 | -62.3 |
| O=C(NCC1CCCO1)/C(=C/c1ccccc1)NC(=O)c1ccccc1 (centres unmarked) | -6.25 |
| CCOC(=O)N1CCN(C(=O)COC(=O)CSc2cc(C)c(Br)cc2C)CC1 | -38.5 |
| C#CCN1C(=O)S/C(=C\c2cc3c(cc2OC)OCO3)C1=O | -18.2 |

| SMILES | hERG current change (%, negative = inhibition) at 10uM [%] |
| --- | --- |
| Cc1c(NC(=O)Nc2cccc(C#N)c2)c(=O)n(-c2ccccc2)n1C | 4.79 |
| CCCn1c(SCC(=O)N2N=C3/C(=C/c4ccc(OC)cc4)CCCC3C2c2ccc(OC)cc2)n[nH]c1=O (centres unmarked) | 9.91 |
| CCOC(=O)C(C)Oc1ccc(NC(=O)C(Cl)(Cl)Cl)cc1 (centres unmarked) | -1.3 |
| C=CCn1cnc2c(nnn2-c2ccc(C)c(Cl)c2)c1=O | 9.05 |
| CCOC(=O)Cn1nc(C)cc1NC(=O)c1ccncc1 | 16.8 |
| CCOC(=O)c1c(C)[nH]c(C(=O)Cn2c(=O)c3c(ncn3CC)n(Cc3ccccc3)c2=O)c1C | -0.17 |
| Cc1ccsc1/C=N/NC(=O)c1nnn(-c2nonc2N)c1-c1ccccc1 | -9.93 |
| COc1ccc(C(=O)NC(Cc2ccccc2)c2ccc3c(c2)OCCCO3)cc1 (centres unmarked) | 0.594 |
| Cc1cnc(C(=O)OCC(=O)c2ccc(C)s2)cn1 | 10.9 |
| C1CCC(Nc2nc3nonc3nc2N2CCSCC2)C1 | 6.25 |
| CC(C)(C)n1nc2c(c1NC(=O)c1ccccc1F)CS(=O)C2 (centres unmarked) | 15.6 |
| c1ccc(NCn2cncn2)nc1 | 17 |
| CS(=O)(=O)c1ccc2nc(NC(=O)CN3C(=O)C4CC=CCC4C3=O)sc2c1 (centres unmarked) | 22.4 |
| COc1cccc(/C=N/n2c(SC)nnc2-c2ccccc2)c1OC | -34.9 |
| O=c1/c(=C\c2ccc(O)cc2)sc2nc(-c3ccccc3)c(-c3ccccc3)n12 | 3.37 |
| CN(C)/C=C1\C(=O)N(c2ccc(Cl)c(Cl)c2)CS1(=O)=O | 13.7 |
| O=C(CCC(=O)N1CCN(c2ccccc2)CC1)Nc1nnc(C2CCCCC2)s1 | 6.92 |
| COC(=O)C[C@H]1c2cc(C(F)(F)F)ccc2S(=O)(=O)N1c1ccc(N(C)C)cc1 | -20.9 |
| Cn1nnnc1SCc1cccc(CSc2nnnn2C)n1 | -7.41 |
| CCN1CCN(C(c2cccs2)C(C)NC(=O)c2cccnc2)CC1 (centres unmarked) | 14 |
| O=C(CN1C(=O)COc2ccccc21)NCCN1CCc2ccccc2C1 | 2.95 |
| COc1ccccc1OCCn1c(CO)nc2ccccc21 | 5.17 |

| SMILES | hERG current change (%, negative = inhibition) at 10uM [%] |
| --- | --- |
| Cc1ccc(NC(=O)COc2cccc(-n3cnnn3)c2)cc1S(=O)(=O)N1CCOCC1 | -24.3 |
| CCOc1cc(C(=O)N2CCN(C/C=C/c3ccccc3)CC2)cc(OCC)c1OCC | -46.3 |
| COc1cc(C(=O)OCC(=O)Nc2ccccc2C(=O)NC2CC2)c([N+](=O)[O-])cc1OC | -2.61 |
| C=CCn1c(CNc2ccccc2)nnc1SCC(=O)N/N=C/c1ccc(O)cc1O | 7.77 |
| COc1ccc(OC)c(NC(=O)c2cc(S(=O)(=O)NCc3ccco3)ccc2F)c1 | 0.414 |
| O=C(COC(=O)c1ccc2c(c1)C(=O)N(CCc1ccccc1)C2=O)Nc1ccc(OC(F)F)cc1 | 12.7 |
| CC(C)(C)c1ccc(C(=O)C2CCCN(C(=O)CN3CCCC3=O)C2)cc1 (centres unmarked) | -7.36 |
| COCCNC(=O)CCCCCn1c(=S)[nH]c2ccccc2c1=O | 5.35 |
| O=C(OCc1c(Cl)cccc1Cl)c1cccnc1 | -7.88 |
| Cc1n[nH]c(=O)c2c(NC(=O)COC(=O)c3ncc(Cl)c(Cl)c3Cl)oc(C)c12 | -0.938 |
| COc1ccc(NC(=O)/C(C#N)=C\c2ccc(-c3cccc(C(=O)O)c3C)o2)cc1 | -9.67 |
| O=C(CSc1nnc2ccccn12)NCc1ccc2c(c1)OCO2 | 7.16 |
| COc1ccc(NC(=S)N(CCc2c(C)[nH]c3ccc(C)cc23)Cc2ccco2)cc1 | 6.18 |
| O=C(N[C@@H](c1ccccc1)[C@@H]1C[C@H]1C(=O)NCc1ccccn1)OCc1ccccc1 | -40.3 |
| CCOc1ccc2nc(C)cc(Nc3cccc([N+](=O)[O-])c3)c2c1.Cl | -30.4 |
| O=C(CN1CCN(c2ccc(F)cc2)CC1)N(C1CCCC1)C1CCS(=O)(=O)C1 (centres unmarked) | -40.4 |
| Cc1cc(C)n(C(C)CNC(=O)c2ccc3c(c2)OCO3)n1 (centres unmarked) | 14.2 |
| C#Cc1ccc(CN2CCCC(C(=O)Nc3ccccc3Oc3cccnc3)C2)cc1 (centres unmarked) | -58.5 |
| O=C(CNCC1CCCCC1)Nc1ccccc1N1CCCCC1.O=C(O)C(=O)O | -15.3 |
| O=C(CCNC(=O)C1CCN(S(=O)(=O)c2ccc(F)cc2)CC1)NCc1ccc(Cl)cc1 | 12.7 |
| CCOC(=O)c1c(C)[nH]c(C(=O)C(C)Cl)c1C (centres unmarked) | -8.78 |
| CC(C)Cc1cc(CN2CCC(CO)(Cc3ccccc3)CC2)[nH]n1 | -71.6 |

| SMILES | hERG current change (%, negative = inhibition) at 10uM [%] |
| --- | --- |
| CCN(CCNC(=O)CN(C)S(=O)(=O)c1cccc2nsnc12)c1ccccc1 | -37.5 |
| CCOC(=O)C(C)(C)N(Cc1ccccc1C)S(=O)(=O)c1ccc(Cl)c([N+](=O)[O-])c1 | 1.31 |
| Cc1ccc(NC(=O)Cn2c(O)c(N=NC(=O)c3cc([N+](=O)[O-])ccc3O)c3ccccc32)cc1 | -7.35 |
| O=C(CNC(=O)c1ccco1)NC1CCCCCC1 | 5.68 |
| CCn1c(SCC(=O)N/N=C/c2ccc(C)o2)nnc1-c1ccccc1 | -8.62 |
| CCOC(=O)C1CCN(S(=O)(=O)c2c(Cl)ccc3nonc23)CC1 | 9.46 |
| CC(=O)Nc1ccc(NC(=O)C2CC(=O)Nc3ncnn32)cc1 (centres unmarked) | 7.42 |
| O=C(NNC(=S)NC(=O)c1ccccc1[N+](=O)[O-])c1ccc(Cl)cc1Cl | -58.2 |
| COc1ccc(NC(c2ccccc2)c2ccncc2)cc1.Cl (centres unmarked) | 4.14 |
| Cc1c(S(=O)(=O)Nc2ccc(Oc3ccccc3)cc2)c(=O)n(C)c(=O)n1C | -24.9 |
| COc1ccc(-c2cc(C(F)(F)F)nc(N3CCOCC3)n2)cc1 | 18.9 |
| O=C(CCCNC(=O)c1ccc(Cl)cc1)Nc1ccccc1C(F)(F)F | -2.39 |
| COC(=O)c1nc(NC(=O)c2ccc(Cl)cc2)n[nH]1 | 19.7 |
| COc1cccc(C(=O)Nc2c3c(nn2-c2ccc(Cl)cc2)CS(=O)(=O)C3)c1OC | -25.4 |
| N#Cc1cccnc1N1CCN(C(=O)c2cccs2)CC1 | -1.7 |
| c1ccc2c(c1)[nH]c1ccccc12 | -11.7 |
| CNC(=S)N(Cc1cccs1)Cc1cc2cc(OC)ccc2[nH]c1=O | -5.11 |
| CCN(CC)S(=O)(=O)c1ccc(C)c(NS(=O)(=O)c2cc(/C=C/C(=O)O)cc(OC)c2OC)c1 | 6.92 |
| COc1cc(NC(=O)CSCc2ccc(Cl)cc2)c(C(=O)O)cc1OC | 13.6 |
| CC1CCCC(NC(=O)CNC(=S)N(Cc2ccccc2)Cc2cccs2)C1C (centres unmarked) | -5.47 |
